PubChem BioAssay (NCATS)
The inconclusive results got no clear call from the source; some entries with a clear call stand among them for comparison. For part of these data: Potencies beside an inconclusive call are fits to weak or partial responses and may not hold up. Activity calls are given as the source filed them. Unless noted, calls come from the whole dose curve.

Columns and labels:
[1] = Cell Viability - Hek293 (AID 427;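 active = compounds whose dose-response curve shows a full or clear partial loss of cell viability, called from curve shape rather than a numeric limit; inconclusive = weak partial curves or an effect only at the top dose; inactive = no dose-dependent loss of viability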;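 note: potency is the fitted concentration of half-maximal effect; cells exposed to compound for 40 hours at 37 °C before reading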); settings: qHTS
Outline: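 Luminescent ATP read-out (CellTiter-Glo, 20 min RT) after 40 hr compound exposure at 37 °C in complete medium. Signal normalized to DMSO (basal) and 100 uM tamoxifen (100% inhibition); concentration-response fitted with the standard Hill equation to give AC50.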

[2] = biological target: Mitogen-activated protein kinase 10 (Mus musculus) (UniProt Q61831); test: JNK3 AlphaScreen Assay (AID 530; active = well fitted curve in either direction with a large enough effect, not every such curve was filed as active; inconclusive = small, poorly fitted or top-dose-only effect, or another doubt;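 note: kinase came from lysate of stimulated human HepG2 cells; signal reports phosphorylation of biotinylated GST-cJun 1-79 at Ser73 with 10 µM ATP; % is set by controls: 0 for no effect and ±100 for the full control effect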); settings: JNK3 lysate, c-Jun phosphorylation; activity change, negative = inhibition: at 57.1 µM (top of the series)
Outline: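 Pre-activated (IL-1β/TNFα) JNK3 in HepG2 lysates phosphorylates biotin-GST-cJun(1-79), 10 uM ATP; anti-phospho-cJun(Ser73) AlphaScreen read at room temperature, pH 7.6 Tris buffer. Compounds pre-incubated 15 min as titrations.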

[3] = biological target: Bile acid receptor (Homo sapiens) (UniProt Q96RI1); test: qHTS assay for small molecule antagonists of farnesoid X receptor signaling (AID 588526); settings: HEK293T FXR-UAS-bla, beta-lactamase ratio, antagonist mode; activity change, negative = inhibition: at 76.7 µM (top of the series); note: % is set by controls: 0 for no effect and ±100 for the full control effect
Chain of UniProt Q96RI1 (Q96RI1 whole entry, looked up): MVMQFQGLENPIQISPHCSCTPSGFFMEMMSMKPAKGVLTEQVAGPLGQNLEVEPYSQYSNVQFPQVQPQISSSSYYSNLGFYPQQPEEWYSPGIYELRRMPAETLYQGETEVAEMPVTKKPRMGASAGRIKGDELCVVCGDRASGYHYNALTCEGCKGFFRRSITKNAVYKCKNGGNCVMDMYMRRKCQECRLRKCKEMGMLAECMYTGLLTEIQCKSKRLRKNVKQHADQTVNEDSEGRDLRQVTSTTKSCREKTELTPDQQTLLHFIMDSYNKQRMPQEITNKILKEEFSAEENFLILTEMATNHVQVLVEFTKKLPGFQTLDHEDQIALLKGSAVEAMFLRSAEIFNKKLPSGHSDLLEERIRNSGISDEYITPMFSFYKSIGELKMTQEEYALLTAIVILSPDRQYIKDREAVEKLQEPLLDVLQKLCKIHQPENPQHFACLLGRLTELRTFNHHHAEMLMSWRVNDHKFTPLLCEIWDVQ
Outline: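 Antagonist mode: titrated compounds tested against chenodeoxycholic acid stimulation (normalized to 50 uM CDCA and DMSO) in GeneBLAzer HEK293T cells for 16 h. Beta-lactamase read by CCF4 fluorescence; IC50 from Hill fits.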

[4] = biological target: Bile acid receptor (Homo sapiens) (UniProt Q96RI1); test: qHTS assay for small molecule agonists of farnesoid X receptor signaling (AID 588527); settings: HEK293T FXR-UAS-bla, beta-lactamase ratio, 16 h; activation: hits give high values;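 note: 0% = vehicle basal and 100% = reference agonist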
Outline: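 FXR-UAS-bla HEK293T, 10% dialyzed FBS; cpds up to 92 uM titration, 16 h 37 C; CCF4 dye 2 h RT; fluorescence. Normalized to chenodeoxycholic acid 100 uM (100%) and DMSO (0%); Hill fit gives EC50, efficacy.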

[5] = biological target: Peroxisome proliferator-activated receptor gamma (Homo sapiens) (UniProt P37231); test: qHTS assay for small molecule antagonists of peroxisome proliferator-activated receptor gamma signaling (AID 588537; active = well fitted inhibition curve with a large enough effect in the signal ratio, with a control signal flat, not every such curve was filed as active; inconclusive = small, poorly fitted or top-dose-only effect, or effect the other way, or a change in a side signal; the % refers to the signal ratio;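 note: reporter cells co-stimulated with 50 nM rosiglitazone agonist during compound treatment; potency is the fitted concentration of half-maximal effect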); settings: HEK293 PPARg-UAS-bla, beta-lactamase ratio, antagonist mode; activity, negative = inhibition: at 76.8 µM (top of the series)
Outline: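 PPARγ-UAS-bla HEK293 cells (3000/well) in 1% charcoal/dextran-stripped FBS are treated with compound, then stimulated with 50 nM rosiglitazone for 16 h at 37 °C. Read-out is CCF4 β-lactamase fluorescence after 2 h at RT. IC50 comes from Hill fits normalised to rosiglitazone and DMSO.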

[6] = biological target: Retinoic acid receptor RXR-alpha (Homo sapiens) (UniProt P19793); test: qHTS assay for small molecule agonists of retinoid X receptor alpha signaling (AID 588544); settings: HEK293T RXRa-UAS-bla, beta-lactamase reporter, 18 h; activation: at 76.7 µM (top of the series) unless noted;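 note: 0% = DMSO basal wells and 100% = reference agonist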
Chain of UniProt P19793 (P19793 whole entry, looked up): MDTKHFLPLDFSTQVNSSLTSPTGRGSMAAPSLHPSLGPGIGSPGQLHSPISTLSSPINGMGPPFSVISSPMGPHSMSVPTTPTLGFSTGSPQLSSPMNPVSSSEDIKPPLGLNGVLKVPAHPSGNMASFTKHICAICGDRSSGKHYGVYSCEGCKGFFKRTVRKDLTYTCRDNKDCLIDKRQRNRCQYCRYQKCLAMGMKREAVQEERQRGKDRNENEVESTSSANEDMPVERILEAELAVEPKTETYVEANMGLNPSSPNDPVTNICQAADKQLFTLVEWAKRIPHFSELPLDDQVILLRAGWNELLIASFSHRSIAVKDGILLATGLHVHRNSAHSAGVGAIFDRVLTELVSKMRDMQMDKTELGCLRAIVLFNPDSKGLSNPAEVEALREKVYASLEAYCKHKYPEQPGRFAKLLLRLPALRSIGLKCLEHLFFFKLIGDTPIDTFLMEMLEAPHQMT

[7] = biological target: Thyroid hormone receptor beta (Homo sapiens) (UniProt P10828); test: qHTS assay for small molecule antagonists of thyroid hormone receptor beta signaling (AID 588547; active = well fitted inhibition curve with a large enough effect in the signal ratio, with a control signal flat, not every such curve was filed as active; inconclusive = small, poorly fitted or top-dose-only effect, or effect the other way, or a change in a side signal; the % refers to the signal ratio;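 note: cells stimulated with 0.4 nM T3 agonist during compound exposure; % is set by controls: 0 for no effect and ±100 for the full control effect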); settings: TR-UAS-bla HEK293, beta-lactamase ratio, antagonist mode, 18 h
Chain of UniProt P10828 (P10828 whole entry, looked up): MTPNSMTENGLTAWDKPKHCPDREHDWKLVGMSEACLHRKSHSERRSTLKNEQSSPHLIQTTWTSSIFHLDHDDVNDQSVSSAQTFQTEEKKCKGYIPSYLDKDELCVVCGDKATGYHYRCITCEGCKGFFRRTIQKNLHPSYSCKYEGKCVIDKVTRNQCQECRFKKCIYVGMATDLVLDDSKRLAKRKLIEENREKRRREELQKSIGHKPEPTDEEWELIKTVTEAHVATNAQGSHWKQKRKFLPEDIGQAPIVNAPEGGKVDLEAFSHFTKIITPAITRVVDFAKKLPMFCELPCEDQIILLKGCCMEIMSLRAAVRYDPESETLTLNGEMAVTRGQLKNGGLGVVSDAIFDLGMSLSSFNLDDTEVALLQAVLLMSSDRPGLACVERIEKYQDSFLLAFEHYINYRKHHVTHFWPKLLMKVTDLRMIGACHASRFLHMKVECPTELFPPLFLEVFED
Outline: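 TR-UAS-bla GripTite HEK293 cells in 2% charcoal/dextran FBS medium; compounds 0.59 nM to 92 uM with T3 at 0.4nM final, 18 h at 37 C. Beta-lactamase read by CCF4 fluorescence (460/530 nm); Hill fits gave IC50 and efficacy.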

[8] = qHTS assay for small molecule agonists of the antioxidant response element (ARE) signaling pathway (AID 651741; active = well fitted activation curve with a large enough effect in the signal ratio; inconclusive = small, poorly fitted or top-dose-only effect, or effect the other way, or a change in a side signal; the % refers to the signal ratio; note: % of control where 0% means no effect); settings: HepG2 ARE-bla reporter, beta-lactamase FRET ratio, 16 h; activation: at 96 µM (top of the series) unless noted
Outline: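 CellSensor ARE-bla HepG2 cells (2,000/well) carrying ARE-driven beta-lactamase, exposed 16 h at 37 C. LiveBLAzer B/G FRET substrate added for 2 h at room temperature; fluorescence intensity read.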

[9] = qHTS assay to identify small molecules that stimulate interleukin-8 (IL-8) secretion (AID 651758; active = well fitted activation curve with a large enough effect in the signal ratio; inconclusive = small, poorly fitted or top-dose-only effect, or effect the other way, or a change in a side signal; the % refers to the signal ratio; note: 0% is about no effect); settings: HTRF ratio (665/615); activation: at 92.2 µM (top of the series)
Outline: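 THP-1 cells (2000/well) exposed to compound 16 h at 37 C; secreted IL-8 then detected by HTRF with cryptate- and XL665-labelled anti-IL-8 antibody pair after 1-3 h at room temperature.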

[10] = Cell Viability - Jurkat (AID 426;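 active = dose-dependent loss of cell ATP signal giving a full or clear fitted curve, ranked by lower potency value; inconclusive = weak partial curve or response only at the top dose; inactive = no loss of viability signal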;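 note: potency is the fitted concentration of half-maximal effect; cells exposed to compound for 40 hours at 37 °C before ATP read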); settings: qHTS
Outline: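 Jurkat (Clone E6-1) cells, 5000/well in complete medium, exposed to compounds for 40 hr at 37C; intracellular ATP measured by CellTiter-Glo luminescence after 20 min at room temperature. AC50 from Hill fits.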

[11] = Cell Viability - LYMP2-017 (AID 972; active = well fitted curve in the direction sought with a large enough effect; inconclusive = small, poorly fitted or top-dose-only effect, or another doubt; inactive = no such curve, though single readings can be large; an effect the other way counts as inactive or inconclusive; note: % is set by controls: 0 for no effect and ±100 for the full control effect; nearly all actives have a fitted effect of over 55% in size); settings: LYMP2-017 lymphoblastoid cell viability; series mostly up to 92.2 µM
Outline: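 LYMP2-017 human lymphoblastoid cells (2500/well) settled 5 hr at 37 C, then exposed to compound 24 hr at 37 C in complete medium. Viability taken as intracellular ATP by CellTiter-Glo luminescence after 30 min at RT; AC50 from Hill fits.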

[12] = Cell Viability - LYMP2-006 (AID 978; active = well fitted curve in the direction sought with a large enough effect; inconclusive = small, poorly fitted or top-dose-only effect, or another doubt; inactive = no such curve, though single readings can be large; an effect the other way counts as inactive or inconclusive; note: % is set by controls: 0 for no effect and ±100 for the full control effect; nearly all actives have a fitted effect of over 60% in size); settings: LYMP2-006 lymphoblastoid cell viability, qHTS; series mostly up to 92.2 µM
Outline: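 Cells are seeded at 2500 per well and rested 5 hr at 37 C. Compounds are added across a concentration series for 24 hr at 37 C, after which ATP is quantified by luciferase luminescence.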

[13] = qHTS assay for small molecule activators of the nuclear factor-kappa B (NF-kB) signaling pathway (AID 651749; active = well fitted activation curve with a large enough effect in the signal ratio; inconclusive = small, poorly fitted or top-dose-only effect, or a change in a side signal; the % refers to the signal ratio; note: % of control where 0% means no effect); settings: NF-kB-bla ME-180 cells, beta-lactamase FRET ratio, 16 h; activation: hits give high values
Outline: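 NF-kB-bla ME-180 cells carrying a beta-lactamase reporter under an NF-kB response element, 2,000 cells/well, exposed to compound for 16 hr at 37C; FRET-based beta-lactamase fluorescence read-out of pathway activation.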

[14] = qHTS assay for small molecule disruptors of the mitochondrial membrane potential - 1 hr assay (AID 651754); settings: ratio change, negative = depolarisation: at 92.2 µM (top of the series); note: % is set by controls: 0 for no effect and ±100 for the full control effect; nearly all actives have a fitted effect of over 35% in size
Outline: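 HepG2 cells, attached overnight, were exposed to compound for 1 hr at 37C, then stained 30 min with a potentiometric dye. Ratio of red aggregate (590nm) to green monomer (535nm) fluorescence reports membrane potential; collapse shifts signal toward green.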

[15] = qHTS assay for small molecule disruptors of the mitochondrial membrane potential - 5 hr assay (AID 651755); settings: JC-1-type ratio dye; ratio change, negative = disruption: at 92.2 µM (top of the series); note: % is set by controls: 0 for no effect and ±100 for the full control effect; nearly all actives have a fitted effect of over 40% in size
Outline: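 HepG2 cells (2,000/well), attached overnight, exposed to compound 5 hr at 37C, then Mito-MPS dye 30 min. Fluorescence read for monomers (490/535 nm) and aggregates (540/590 nm).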

[16] = biological target: Nuclear receptor ROR-gamma (Homo sapiens) (UniProt P51449); test: qHTS assay for small molecule antagonists of the retinoid-related orphan receptor gamma (ROR-gamma) signaling pathway (AID 651802; active = well fitted curve in the direction sought with a large enough effect; inconclusive = small, poorly fitted or top-dose-only effect, or another doubt; inactive = no such curve, though single readings can be large; an effect the other way counts as inactive or inconclusive;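 note: luciferase reporter luminescence driven by ROR response element; % is set by controls: 0 for no effect and ±100 for the full control effect; nearly all actives have a fitted effect of over 60% in size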); settings: ROR-gamma antagonist cell reporter assay; series mostly up to 92.2 µM
Chain of UniProt P51449 (P51449 whole entry, looked up): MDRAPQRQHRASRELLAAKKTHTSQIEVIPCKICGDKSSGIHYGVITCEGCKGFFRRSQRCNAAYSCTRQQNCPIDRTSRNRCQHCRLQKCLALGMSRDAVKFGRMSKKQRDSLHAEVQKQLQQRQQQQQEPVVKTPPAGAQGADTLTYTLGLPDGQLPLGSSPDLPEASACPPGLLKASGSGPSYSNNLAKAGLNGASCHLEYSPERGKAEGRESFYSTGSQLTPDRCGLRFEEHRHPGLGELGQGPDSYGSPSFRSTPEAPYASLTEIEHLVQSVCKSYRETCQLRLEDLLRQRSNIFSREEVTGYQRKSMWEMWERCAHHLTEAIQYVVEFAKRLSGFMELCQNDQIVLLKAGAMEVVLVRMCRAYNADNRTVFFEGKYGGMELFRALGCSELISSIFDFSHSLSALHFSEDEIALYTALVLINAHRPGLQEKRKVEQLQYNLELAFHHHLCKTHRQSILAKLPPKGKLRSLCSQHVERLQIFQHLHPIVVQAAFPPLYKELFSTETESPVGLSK
Outline: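 CHO cells with TET-inducible ROR-gamma and RORE-luciferase reporter, dosed then doxycycline-induced. After 16 h at 37C, One-Glo luminescence read; decreased signal indicates antagonism.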
Tags give direction and shape of the fitted curve or compound fluorescence and quenching.

CC(=O)CC(C)C
inconclusive: Potency [5] 50.1 µM [activator, single point] | activation [9] 24.3%
inactive: Potency [1] > 92 µM | Potency [2] | Potency [3] | activation [4] -0.151% | Potency [6] | activity change % (negative = inhibition) [7] -3.32% | Potency [8]

O=c1[nH][nH]c(=O)c2cc([N+](=O)[O-])ccc12
inconclusive: ratio change, negative = depolarisation [14] -31.4% | ratio change, negative = disruption [15] -28.9% | activation [9] 7.92%
inactive: Potency [10] > 92 µM | Potency [11] | Potency [12] | Potency [8] | activation [13] 0.392% | Potency [16]
